T1: RBFOX1 RRM RbFoxmut (Fox-RRM*) (Homo sapiens, UniProt Q9NWB1 109-208, R118D;E147R;N151S;E152T)
T1 sequence: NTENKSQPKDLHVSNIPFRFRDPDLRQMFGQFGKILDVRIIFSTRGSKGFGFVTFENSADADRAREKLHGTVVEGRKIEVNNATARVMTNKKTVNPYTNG

B1: CGUAUGC (DNA:RNA)
RNA: GGGAGACCGGAAUUCAGAUUGUCCCGUAUGCUUAAAUCCCGUCGUAGCCACCA
DNA 1: CAATCTGAATTCCGGTCTCCC
DNA 2: TGGTGGCTACGACGGGATT
B2: AGAUCUC (DNA:RNA)
RNA: B1 RNA with C25A, U27A, A28U, U29C, G30U
DNA 1: CAATCTGAATTCCGGTCTCCC
DNA 2: TGGTGGCTACGACGGGATT
B3: GCGUGGG (DNA:RNA)
RNA: B1 RNA with C25G, G26C, U27G, A28U, U29G, C31G
DNA 1: CAATCTGAATTCCGGTCTCCC
DNA 2: TGGTGGCTACGACGGGATT
B4: GUUGGCU (DNA:RNA)
RNA: B1 RNA with C25G, G26U, A28G, U29G, G30C, C31U
DNA 1: CAATCTGAATTCCGGTCTCCC
DNA 2: TGGTGGCTACGACGGGATT
B5: AAGUUUG (DNA:RNA)
RNA: B1 RNA with C25A, G26A, U27G, A28U, G30U, C31G
DNA 1: CAATCTGAATTCCGGTCTCCC
DNA 2: TGGTGGCTACGACGGGATT
B6: GACUGAA (DNA:RNA)
RNA: GGGAGACCGGAAUUCAGAUUGUCCGACUGAAUUAAAUCCCGUCGUAGCCACCA
DNA 1: CAATCTGAATTCCGGTCTCCC
DNA 2: TGGTGGCTACGACGGGATT
B7: UGACAAC (DNA:RNA)
RNA: B1 RNA with C25U, U27A, A28C, U29A, G30A
DNA 1: CAATCTGAATTCCGGTCTCCC
DNA 2: TGGTGGCTACGACGGGATT
B8: UCUUGGA (DNA:RNA)
RNA: B6 RNA with G25U, A26C, C27U, A30G
DNA 1: CAATCTGAATTCCGGTCTCCC
DNA 2: TGGTGGCTACGACGGGATT
B9: AAGAAUU (DNA:RNA)
RNA: B1 RNA with C25A, G26A, U27G, U29A, G30U, C31U
DNA 1: CAATCTGAATTCCGGTCTCCC
DNA 2: TGGTGGCTACGACGGGATT
B10: GUACACG (DNA:RNA)
RNA: B6 RNA with A26U, C27A, U28C, G29A, A30C, A31G
DNA 1: CAATCTGAATTCCGGTCTCCC
DNA 2: TGGTGGCTACGACGGGATT
B11: AUAGAGC (DNA:RNA)
RNA: B1 RNA with C25A, G26U, U27A, A28G, U29A
DNA 1: CAATCTGAATTCCGGTCTCCC
DNA 2: TGGTGGCTACGACGGGATT
B12: AAUUCUU (DNA:RNA)
RNA: B6 RNA with G25A, C27U, G29C, A30U, A31U
DNA 1: CAATCTGAATTCCGGTCTCCC
DNA 2: TGGTGGCTACGACGGGATT
B13: AAGUCCA (DNA:RNA)
RNA: B6 RNA with G25A, C27G, G29C, A30C
DNA 1: CAATCTGAATTCCGGTCTCCC
DNA 2: TGGTGGCTACGACGGGATT
B14: CUUCAAU (DNA:RNA)
RNA: B1 RNA with G26U, A28C, U29A, G30A, C31U
DNA 1: CAATCTGAATTCCGGTCTCCC
DNA 2: TGGTGGCTACGACGGGATT
B15: AGUUUCU (DNA:RNA)
RNA: B1 RNA with C25A, A28U, G30C, C31U
DNA 1: CAATCTGAATTCCGGTCTCCC
DNA 2: TGGTGGCTACGACGGGATT
B16: UCCCGCG (DNA:RNA)
RNA: B6 RNA with G25U, A26C, U28C, A30C, A31G
DNA 1: CAATCTGAATTCCGGTCTCCC
DNA 2: TGGTGGCTACGACGGGATT
B17: UGUCUGG (DNA:RNA)
RNA: B1 RNA with C25U, A28C, C31G
DNA 1: CAATCTGAATTCCGGTCTCCC
DNA 2: TGGTGGCTACGACGGGATT
B18: GUAACGU (DNA:RNA)
RNA: B1 RNA with C25G, G26U, U27A, U29C, C31U
DNA 1: CAATCTGAATTCCGGTCTCCC
DNA 2: TGGTGGCTACGACGGGATT
B19: AAAUCUA (DNA:RNA)
RNA: B6 RNA with G25A, C27A, G29C, A30U
DNA 1: CAATCTGAATTCCGGTCTCCC
DNA 2: TGGTGGCTACGACGGGATT
B20: GAGUACG (DNA:RNA)
RNA: B6 RNA with C27G, G29A, A30C, A31G
DNA 1: CAATCTGAATTCCGGTCTCCC
DNA 2: TGGTGGCTACGACGGGATT
B21: CCGUCCU (DNA:RNA)
RNA: B1 RNA with G26C, U27G, A28U, U29C, G30C, C31U
DNA 1: CAATCTGAATTCCGGTCTCCC
DNA 2: TGGTGGCTACGACGGGATT
B22: AGCCGCU (DNA:RNA)
RNA: B6 RNA with G25A, A26G, U28C, A30C, A31U
DNA 1: CAATCTGAATTCCGGTCTCCC
DNA 2: TGGTGGCTACGACGGGATT
B23: GUCACUG (DNA:RNA)
RNA: B6 RNA with A26U, U28A, G29C, A30U, A31G
DNA 1: CAATCTGAATTCCGGTCTCCC
DNA 2: TGGTGGCTACGACGGGATT
B24: GGGUAAU (DNA:RNA)
RNA: B6 RNA with A26G, C27G, G29A, A31U
DNA 1: CAATCTGAATTCCGGTCTCCC
DNA 2: TGGTGGCTACGACGGGATT
B25: CGUUUCU (DNA:RNA)
RNA: B1 RNA with A28U, G30C, C31U
DNA 1: CAATCTGAATTCCGGTCTCCC
DNA 2: TGGTGGCTACGACGGGATT
B26: GAAGCAC (DNA:RNA)
RNA: B6 RNA with C27A, U28G, G29C, A31C
DNA 1: CAATCTGAATTCCGGTCTCCC
DNA 2: TGGTGGCTACGACGGGATT
B27: CCCUCAA (DNA:RNA)
RNA: B6 RNA with G25C, A26C, G29C
DNA 1: CAATCTGAATTCCGGTCTCCC
DNA 2: TGGTGGCTACGACGGGATT
B28: ACCCUUC (DNA:RNA)
RNA: B1 RNA with C25A, G26C, U27C, A28C, G30U
DNA 1: CAATCTGAATTCCGGTCTCCC
DNA 2: TGGTGGCTACGACGGGATT
B29: GUCGUCU (DNA:RNA)
RNA: B6 RNA with A26U, U28G, G29U, A30C, A31U
DNA 1: CAATCTGAATTCCGGTCTCCC
DNA 2: TGGTGGCTACGACGGGATT
B30: UUUCAUG (DNA:RNA)
RNA: B1 RNA with C25U, G26U, A28C, U29A, G30U, C31G
DNA 1: CAATCTGAATTCCGGTCTCCC
DNA 2: TGGTGGCTACGACGGGATT
B31: AUCAAAG (DNA:RNA)
RNA: B6 RNA with G25A, A26U, U28A, G29A, A31G
DNA 1: CAATCTGAATTCCGGTCTCCC
DNA 2: TGGTGGCTACGACGGGATT

Results on 31 molecules are retold here after paper PMC9911399, “Two distinct binding modes provide the RNA-binding protein RbFox with extraordinary sequence specificity”.

Where a chain is given by its changes, count along the chain named. Some of the results follow.

For the assay, the target named is T1, RBFOX1 RRM RbFoxmut (Fox-RRM*). The assay is described as follows: EMSA; HiTS-Eq, 1 nM pool, 10 min; buffer printed only for the single-RNA assays: 10 mM Tris pH 7.5, 150 mM NaCl, 3.4 mM EDTA, 0.001% NP-40, 30 C. Conditions: tags: His6 N-terminal (pET28a); label: 5' 32P. The method in brief:
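Relative association constants, normalised to the cognate motif, were derived by comparing read counts of each RNA species with those of the control reaction. The RNA sequenced was the free fraction, separated by 8% native PAGE after a 10 min equilibration in 50 µL of 1 nM 5′-radiolabelled RNA (7 randomized nucleotides) with increasing concentrations of purified wild-type or mutant RbFox RRM.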
(In general: A gel shift assay detects complexes by their altered migration in electrophoresis.)
On to B1, for which the binding signal is 0.325 KA relative to UGCAUGU. Consider B2, for which the binding signal was 0.0652 KA relative to UGCAUGU.

Consider B3, for which the binding signal was 0.0842 KA relative to UGCAUGU. The figure for B4 is 0.121 KA relative to UGCAUGU; for B5 it is 0.26 KA relative to UGCAUGU; for B6 it is 0.123 KA relative to UGCAUGU. Under B7 stands 0.0518 KA relative to UGCAUGU; under B8, 0.0661 KA relative to UGCAUGU. B9: the binding signal is 0.108 KA relative to UGCAUGU. Under B10 stands 0.118 KA relative to UGCAUGU; under B11, 0.121 KA relative to UGCAUGU; under B12, 0.0931 KA relative to UGCAUGU. The figure for B13 is 0.0963 KA relative to UGCAUGU; for B14 it is 0.0426 KA relative to UGCAUGU.

B15: the binding signal was 0.0838 KA relative to UGCAUGU. Consider B16, for which the binding signal was 0.112 KA relative to UGCAUGU.

As to B17, the binding signal was 0.196 KA relative to UGCAUGU. The figure for B18 is 0.105 KA relative to UGCAUGU. For the molecule B19, the binding signal is 0.088 KA relative to UGCAUGU.

Regarding B20, the binding signal is 0.22 KA relative to UGCAUGU. With B21, the binding signal was 0.0685 KA relative to UGCAUGU. Turning to B22, the binding signal was 0.0799 KA relative to UGCAUGU. The figure for B23 is 0.0956 KA relative to UGCAUGU; for B24 it is 0.101 KA relative to UGCAUGU; for B25 it is 0.102 KA relative to UGCAUGU. On to B26, for which the binding signal is 0.0527 KA relative to UGCAUGU. The figure for B27 is 0.0954 KA relative to UGCAUGU. The figure for B28 is 0.0441 KA relative to UGCAUGU; for B29 it is 0.0809 KA relative to UGCAUGU; for B30 it is 0.114 KA relative to UGCAUGU.

As to B31, the binding signal was 0.0981 KA relative to UGCAUGU.
